From ChEMBL document CHEMBL4888484, “Replenishing the malaria drug discovery pipeline: Screening and hit evaluation of the MMV Hit Generation Library 1 (HGL1) against asexual blood stage Plasmodium falciparum ,using a nano luciferase reporter read-out” (2022)
About 540 (0.36%) of roughly 150,000 compounds showed an effect of 50% or more. This is one part of the list.

The compounds below were run on Plasmodium falciparum (assay: Primary screen in NF54 nanoGlo assay, in single point, at 2uM, 72h; a lower Z score goes with more inhibition). Conditions: timepoint 72 hour.
Format: functional, Erythrocyte
For `N#Cc1ccc(N2CCN(Cc3c[nH]cn3)C[C@H](O)C2)nc1`, the “% Inhibition” value was -8% and the Z score was 1.38.
With `Cc1ncsc1C(=O)NC[C@H]1CCCN1c1ncccn1` the “% Inhibition” value was -6% and the Z score was 0.64.
`Cc1nnc(-c2csc(S(=O)(=O)NCc3ccc4c(c3)OCO4)c2)o1` was tested, and the “% Inhibition” value was 3% and the Z score was -0.34.
For `CC[C@](C)(NC(=O)c1ccccn1)C(=O)NC1CCCC1`, the “% Inhibition” value was -10% and the Z score was 1.97.
With `COc1nc(C)cc(NCC2(n3cccn3)CC2)n1` the “% Inhibition” value was -4% and the Z score was 0.78.
For `COC(=O)C1CCN2C(=O)N(c3ccc(C)nc3C)C(=O)C2C1` (configuration not stated), the “% Inhibition” value was -16% and the Z score was 1.81.
For `COC(=O)N(C)CC(=O)Nc1cc(Cl)c(Cl)cc1Cl`, the “% Inhibition” value was -9% and the Z score was 1.16.
With `COc1ccc(S(=O)(=O)N2CCN(C)C3(CCN(C)CC3)C2)cc1Cl` the “% Inhibition” value was -25% and the Z score was 2.54.
In the case of `CCCC(CCC)C(=O)Nc1cc(Cl)ccc1OC`, the “% Inhibition” value was -1% and the Z score was 0.14.
With `CC(C)CNC(=O)N1CCC[C@H](N(CCN2CCOCC2)S(C)(=O)=O)C1` the “% Inhibition” value was -4% and the Z score was 0.55.
With `Cc1cc(-c2nnn(CC(=O)N3CCCC3)n2)ccc1F` the “% Inhibition” value was -11% and the Z score was 1.41.
In the case of `O=C(Nc1ccnn1C1CCCC1)c1ccc(Br)o1`, the “% Inhibition” value was -12% and the Z score was 1.12.
In the case of `O=C(NCc1c(O)cccc1F)N[C@H]1CC12CCOCC2`, the “% Inhibition” value was -6% and the Z score was 0.96.
`CCN(C(=O)c1cc2sccc2[nH]1)[C@H]1COC[C@@H]1O` was tested, and the “% Inhibition” value was -11% and the Z score was 1.6.
In the case of `O=C(c1ccnc(N2CCn3nc(CO)cc3C2)c1)N1CCOCC1`, the “% Inhibition” value was -26% and the Z score was 2.26.
With `COC(=O)CNC(=O)CCN(C)[C@@H](C)c1ccccc1F` the “% Inhibition” value was -16% and the Z score was 3.
In the case of `Cc1nc(C(=O)NCCc2ccccc2N2CCOCC2)c(C)o1`, the “% Inhibition” value was 0% and the Z score was -0.01.
In the case of `C=C(C)CN(CC)C(=O)CN1CCO[C@@H](CN(C)C)C1`, the “% Inhibition” value was -14% and the Z score was 1.77.
For `FC(F)(F)c1cnc(N2CCN(CCc3cnccn3)CC2)s1`, the “% Inhibition” value was -2% and the Z score was 0.27.
For `Cc1nsc(NCc2ccc3c(c2)nc(C)n3C2CC2)n1`, the “% Inhibition” value was -12% and the Z score was 1.31.
In the case of `COc1cccc(C2=Nc3cccnc3N(CC(=O)Nc3ccccc3Cl)C(=O)C2)c1`, the “% Inhibition” value was 30% and the Z score was -3.4.
`Cc1ccccc1C(=O)N(CCC(=O)O)CC(C)C` was tested, and the “% Inhibition” value was 2% and the Z score was -0.29.
For `O=C1NCCCC[C@@H]1NC(=O)N(CC1CCCCC1)C1CC1`, the “% Inhibition” value was -1% and the Z score was 0.11.
For `Cc1cc(N(C)Cc2nc3c(o2)CCCC3)n[nH]1`, the “% Inhibition” value was -10% and the Z score was 1.72.
`CC(C)OCCCNC(=O)c1ncccc1Br` was tested, and the “% Inhibition” value was -7% and the Z score was 0.68.
With `O=C(Cc1cccs1)N[C@@H](Cc1cccc(F)c1)c1cccc(F)c1` the “% Inhibition” value was 1% and the Z score was -0.16.
For `Cc1ccc(C)c(NC(=O)N2CCC[C@H](N(CCN3CCCC3)C(=O)C3CCC3)C2)c1`, the “% Inhibition” value was 0% and the Z score was 0.02.
`CCCC[C@H]1C(=O)N(C)CCN1S(=O)(=O)c1cc(-c2cnc(C)o2)ccc1C` was tested, and the “% Inhibition” value was -3% and the Z score was 0.51.
For `O=C(Cn1ccnc1)N1CCC(c2nc3c(s2)CCC3)CC1`, the “% Inhibition” value was -2% and the Z score was 0.31.
`N#Cc1ccc(O)c(NC(=O)c2cccc3cc[nH]c23)c1` was tested, and the “% Inhibition” value was 43% and the Z score was -3.9.
With `Clc1ccc2nc(-c3ccccn3)nc(-c3ccccc3)c2c1` the “% Inhibition” value was 8% and the Z score was -1.03.
`O=C(c1ccc[nH]1)N1CC[C@H]2[C@H](CCC(=O)N2CCc2c[nH]cn2)C1` was tested, and the “% Inhibition” value was -3% and the Z score was 0.66.
In the case of `O=C(Nc1ccc(Cc2ccccc2)cc1)N1C[C@H](c2ccccc2)C(c2ccc(Cl)cc2)=N1`, the “% Inhibition” value was -31% and the Z score was 3.62.
With `Cc1c(C(=O)NS(=O)(=O)C2C[C@@H]3CC[C@H]2C3)nnn1-c1cnn(C)c1` (some centres not stated) the “% Inhibition” value was -1% and the Z score was 0.22.
With `CN1CCC(N2CCOC[C@H]2c2nc(-c3ccccc3)c[nH]2)CC1` the “% Inhibition” value was 18% and the Z score was -2.08.
For `CC(C)c1nnc(CN2CCCN(S(=O)(=O)N(C)C)CC2)s1`, the “% Inhibition” value was -3% and the Z score was 0.4.
For `Cc1ccc(C(=O)N2CCC3(CC2)C[C@@H](O)CCO3)cc1`, the “% Inhibition” value was -6% and the Z score was 0.98.
For `COCC(=O)Nc1cc(C(=O)N2CCC(Oc3ccccc3F)CC2)c2c(c1)nc(C1CCC1)n2C`, the “% Inhibition” value was -10% and the Z score was 1.87.
`CC(C)[C@H](NC(=O)NCc1ccccc1)C(=O)N1CCc2sccc2C1` was tested, and the “% Inhibition” value was -21% and the Z score was 2.77.
`CCN(C(=O)c1cc(O)n(C)n1)[C@H]1CCCc2cccnc21` was tested, and the “% Inhibition” value was -2% and the Z score was 0.32.
For `CC(C)C[C@@H](CO)N(C)C(=O)c1cn2ccnc2s1`, the “% Inhibition” value was 3% and the Z score was -0.69.
With `CCc1nc(CN2C(=O)N[C@](C)(c3ccc(C(N)=O)cc3)C2=O)no1` the “% Inhibition” value was -5% and the Z score was 1.01.
In the case of `CC(C)n1cc2cc(C(=O)NCCc3ccncc3)sc2c1`, the “% Inhibition” value was 0% and the Z score was -0.08.
`CC(C)c1ccc(N2C(=O)[C@H](CC(=O)NCc3cccnc3)N=C2O)cc1` was tested, and the “% Inhibition” value was -8% and the Z score was 1.08.
In the case of `CN(Cc1ncon1)C(=O)c1ccc2c(c1)OCC(=O)N2`, the “% Inhibition” value was -8% and the Z score was 0.76.
For `CN(C)S(=O)(=O)N1CCC(CCc2nc(C3CCOCC3)no2)CC1`, the “% Inhibition” value was -6% and the Z score was 0.87.
For `COc1ccc(CC(=O)N2CCN(c3nc(C)cc(N4CCCC4)n3)CC2)cc1`, the “% Inhibition” value was -7% and the Z score was 1.39.
In the case of `CCOC1CC(O)(CNc2nc(OC)ncc2Cl)C1(C)C` (configuration not stated), the “% Inhibition” value was 0% and the Z score was -0.06.
In the case of `CCC(C)C(OC)C(=O)Nc1ccc(C)nc1O` (configuration not stated), the “% Inhibition” value was -8% and the Z score was 1.34.
`Cc1ccccc1C(=O)Nc1ccc2c(n1)CCC2` was tested, and the “% Inhibition” value was -15% and the Z score was 2.52.
In the case of `CC1CCCC(Cn2cnc(C#N)c2C#N)C1` (configuration not stated), the “% Inhibition” value was -3% and the Z score was 0.41.
With `Cc1ccc(CN(Cc2ccc(F)cc2)C(=O)CN(C(=O)Nc2ccccc2)C2CC2)o1` the “% Inhibition” value was -2% and the Z score was 0.42.
For `CCc1ccc2occ(Cc3ncnn3CCO)c2c1`, the “% Inhibition” value was -8% and the Z score was 1.51.
For `CC(C)NS(=O)(=O)N1CCC(C(=O)N(Cc2ccccc2)C2CC2)CC1`, the “% Inhibition” value was -8% and the Z score was 1.24.
`CN1CCc2ncnc(NCc3cccc(-c4ccccn4)n3)c2C1` was tested, and the “% Inhibition” value was -8% and the Z score was 1.68.
With `O=C(Nc1ccccc1C(=O)N1CCCCC1)c1ccco1` the “% Inhibition” value was -13% and the Z score was 1.73.
With `CCCN1CCN(C(=O)c2cc(-c3ccccc3)n[nH]2)[C@H]2CS(=O)(=O)C[C@H]21` the “% Inhibition” value was 6% and the Z score was -0.8.
In the case of `CCc1nnc2c(NCCCN3CCN(c4cccc(Cl)c4)CC3)nc3ccccc3n12`, the “% Inhibition” value was -9% and the Z score was 1.43.
In the case of `CCOC(=O)c1cnn(-c2nc3ccccc3[nH]2)c1CN1C[C@@H](C)O[C@@H](C)C1`, the “% Inhibition” value was -3% and the Z score was 0.39.
In the case of `O=C(Cn1c(C(=O)NCc2ccc(F)cc2F)cccc1=O)NCc1ccco1`, the “% Inhibition” value was 0% and the Z score was -0.05.
In the case of `CCCn1cc(CNC(=O)N2CCN(c3ccccc3)C(=O)[C@@H]2C)cn1`, the “% Inhibition” value was -11% and the Z score was 1.31.
In the case of `O=C(CN1C(=O)COc2ccc(S(=O)(=O)N3CCCC3)cc21)N1CCCCCC1`, the “% Inhibition” value was 3% and the Z score was -0.53.
In the case of `Cc1cc(C)cc(CCNC(=O)C2([C@]3(O)CCCNC3)CCC2)c1`, the “% Inhibition” value was -2% and the Z score was 0.45.
`O=C(CCn1cnnn1)N1CCC2(CCC(=O)N(CCc3cccnc3)C2)CC1` was tested, and the “% Inhibition” value was 2% and the Z score was -0.41.
`CC(NC(=O)c1ccoc1)C(=O)N1CC2C(C1)C2(C)C` (configuration not stated) was tested, and the “% Inhibition” value was -13% and the Z score was 1.06.
With `O=C(NCc1nc(-c2cc[nH]c(=O)c2)no1)c1ccccn1` the “% Inhibition” value was -6% and the Z score was 1.06.
`C1CCC2(C1)CCC(CNC1CCCC13CCOCC3)O2` (configuration not stated) was tested, and the “% Inhibition” value was -9% and the Z score was 0.79.
In the case of `O=C(NC[C@H]1CCCC1(F)F)c1ccoc1`, the “% Inhibition” value was -8% and the Z score was 1.59.
In the case of `COC(=O)[C@@H](C)CN(Cc1ccccc1)C(=O)c1oc(C)nc1C`, the “% Inhibition” value was 6% and the Z score was -0.64.
For `COc1ccccc1C(=O)Nc1cc(-c2ccco2)no1`, the “% Inhibition” value was -19% and the Z score was 3.32.
In the case of `CC(C)(C)NC(=O)NCCc1csc(-n2cccn2)n1`, the “% Inhibition” value was 3% and the Z score was -0.51.
For `COc1ccc2c(c1)N(Cc1cnc3ncccn13)C[C@H](C)O2`, the “% Inhibition” value was -10% and the Z score was 1.03.
`Cn1ncc(C(F)(F)F)c1C(=O)N1c2ccccc2C[C@@H]1CN` was tested, and the “% Inhibition” value was 4% and the Z score was -0.87.
`c1cncc(CNc2nnc(CC3CCCC3)o2)c1` was tested, and the “% Inhibition” value was -9% and the Z score was 1.04.
With `Cc1ccccc1Cn1nc(-c2ccc(F)cc2)c(C)c1-c1ccc(F)cc1` the “% Inhibition” value was 4% and the Z score was -0.58.
`Cc1cc(C)nc(NC(=O)c2ccc3c(c2)OCO3)n1` was tested, and the “% Inhibition” value was -30% and the Z score was 3.54.
`O=C(OCC(F)(F)F)N1CCC[C@@H]1c1ccon1` was tested, and the “% Inhibition” value was -1% and the Z score was 0.25.
`COCCN1C[C@]2(CCCN(C(=O)Cn3ccccc3=O)C2)CCC1=O` was tested, and the “% Inhibition” value was -15% and the Z score was 2.05.
In the case of `Cc1nc(-c2ncc(C(=O)N(C)Cc3snnc3C)c(O)n2)cs1`, the “% Inhibition” value was -1% and the Z score was 0.2.
In the case of `CCCc1nsc(NC(=O)Cc2ccsc2)n1`, the “% Inhibition” value was -47% and the Z score was 5.54.
In the case of `Cc1cccc(Cc2c(C)nc(C3CC3)nc2N2CCN(S(C)(=O)=O)CC2)c1`, the “% Inhibition” value was -6% and the Z score was 0.99.
With `Cc1nc2ccccc2n1CCNC1CCCC1Cc1cnn(C)c1` (configuration not stated) the “% Inhibition” value was -3% and the Z score was 0.45.
`O=C(COc1ccccc1Cl)Nc1ccc(C2(c3ccc(NC(=O)COc4ccccc4Cl)cc3)c3ccccc3-c3ccccc32)cc1` was tested, and the “% Inhibition” value was 38% and the Z score was -1.02.
With `O[C@@H]1COCCN(c2ncnc3c2Cc2ccccc2OC3)C1` the “% Inhibition” value was 1% and the Z score was -0.22.
`Cc1cccc(-n2c(=O)n(Cc3ccccc3)c(=O)c3c2ncn3Cc2ccccc2F)c1` was tested, and the “% Inhibition” value was -16% and the Z score was 1.51.
In the case of `O=C(NC[C@H]1CCCO1)C1CCN(C2CCN(C3Cc4ccccc4C3)CC2)CC1`, the “% Inhibition” value was -6% and the Z score was 1.18.
